Experimental data taken from the supplement of paper PMC8728848.
This is one part of the list.

Legend:
Experiment in all cases: glycan array binding signal (z-score within array); higher = stronger binding
Details in all cases: glycan notation: IUPAC condensed, linker removed
[1] = target: Neu5Ac(a2-6)Gal(b1-4)GlcNAc(b1-3)Gal(b1-4)GlcNAc(b1-3)Gal(b1-4)GlcNAc(b1-2)Man(a1-3)[Neu5Ac(a2-6)Gal(b1-4)GlcNAc(b1-3)Gal(b1-4)GlcNAc(b1-3)Gal(b1-4)GlcNAc(b1-2)Man(a1-6)]GalNAc
In short: (§1)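 From the Consortium for Functional Glycomics database, 3228 arrays were curated, keeping only those whose protein sequence was available. Binding is given as a within-array Z-score averaged across arrays sharing a protein sequence and across linkers. Negative Z-scores can be read as non-binding.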

[2] = target: Neu5Ac(a2-6)Gal(b1-4)GlcNAc(b1-3)Gal(b1-4)GlcNAc(b1-3)GalNAc
In short: as §1

[3] = target: Neu5Ac(a2-6)Gal(b1-4)GlcNAc(b1-3)Gal(b1-4)GlcNAc(b1-3)[Neu5Ac(a2-6)Gal(b1-4)GlcNAc(b1-3)Gal(b1-4)GlcNAc(b1-6)]GalNAc
In short: as §1

[4] = target: Neu5Ac(a2-6)Gal(b1-4)GlcNAc(b1-3)Gal(b1-4)GlcNAc(b1-6)[Gal(b1-3)]GalNAc
In short: as §1

[5] = target: Neu5Ac(a2-6)Gal(b1-4)GlcNAc(b1-3)Gal(b1-4)[Fuc(a1-3)]GlcNAc(b1-3)Gal(b1-4)[Fuc(a1-3)]GlcNAc
In short: as §1

[6] = target: Neu5Ac(a2-6)Gal(b1-4)GlcNAc(b1-3)GalNAc
In short: as §1

[7] = target: Neu5Ac(a2-6)Gal(b1-4)GlcNAc(b1-3)[Neu5Ac(a2-6)Gal(b1-4)GlcNAc(b1-6)]GalNAc
In short: as §1

[8] = target: Neu5Ac(a2-6)Gal(b1-4)GlcNAc(b1-6)GalNAc
In short: as §1

[9] = target: Neu5Ac(a2-6)Gal(b1-4)GlcNAc(b1-6)[Gal(b1-3)GlcNAc(b1-3)]Gal(b1-4)Glc
In short: as §1

[10] = target: Neu5Ac(a2-6)Gal(b1-4)GlcNAc(b1-6)[Gal(b1-3)]GalNAc
In short: as §1

[11] = target: Neu5Ac(a2-6)Gal(b1-4)GlcNAc6S
In short: as §1

Neu5Ac(a2-6)GalNAc = target: Neu5Ac(a2-6)GalNAc
In short: as §1

[12] = target: Neu5Ac(a2-6)GalNAc(b1-4)GlcNAc
In short: as §1

[13] = target: Neu5Ac(a2-6)GalNAc(b1-4)GlcNAc6S
In short: as §1

[14] = target: Neu5Ac(a2-6)GlcNAc(b1-4)GlcNAc
In short: as §1

[15] = target: Neu5Ac(a2-6)GlcNAc(b1-4)GlcNAc(b1-4)GlcNAc
In short: as §1

Neu5Ac(a2-8)Neu5Ac = target: Neu5Ac(a2-8)Neu5Ac
In short: as §1

[16] = target: Neu5Ac(a2-8)Neu5Ac(a2-3)Gal(b1-3)GalNAc(b1-4)[Neu5Ac(a2-3)]Gal(b1-4)Glc
In short: as §1

[17] = target: Neu5Ac(a2-8)Neu5Ac(a2-3)Gal(b1-3)GalNAc(b1-4)[Neu5Ac(a2-8)Neu5Ac(a2-3)]Gal(b1-4)Glc
In short: as §1

[18] = target: Neu5Ac(a2-8)Neu5Ac(a2-3)Gal(b1-4)Glc
In short: as §1

[19] = target: Neu5Ac(a2-8)Neu5Ac(a2-3)Gal(b1-4)GlcNAc
In short: as §1

[20] = target: Neu5Ac(a2-8)Neu5Ac(a2-3)[Gal(b1-3)GalNAc(b1-4)]Gal(b1-4)Glc
In short: as §1

[21] = target: Neu5Ac(a2-8)Neu5Ac(a2-3)[GalNAc(b1-4)]Gal(b1-4)Glc
In short: as §1

[22] = target: Neu5Ac(a2-8)Neu5Ac(a2-8)Neu5Ac
In short: as §1

[23] = target: Neu5Ac(a2-8)Neu5Ac(a2-8)Neu5Ac(a2-3)Gal(b1-4)Glc
In short: as §1

[24] = target: Neu5Ac(a2-8)Neu5Ac(a2-8)Neu5Ac(a2-3)[Gal(b1-3)GalNAc(b1-4)]Gal(b1-4)Glc
In short: as §1

[25] = target: Neu5Ac(a2-8)Neu5Ac(a2-8)Neu5Ac(a2-3)[GalNAc(b1-4)]Gal(b1-4)Glc
In short: as §1

[26] = target: Neu5Ac(a2-8)Neu5Ac(a2-8)Neu5Ac(a2-8)Neu5Ac(a2-3)[GalNAc(b1-4)]Gal(b1-4)Glc
In short: as §1

[27] = target: Neu5Ac(a2-8)Neu5Gc(a2-3)Gal(b1-4)GlcNAc
In short: as §1

[28] = target: Neu5Ac(b2-6)Gal(b1-4)GlcNAc
In short: as §1

Neu5Ac(b2-6)GalNAc = target: Neu5Ac(b2-6)GalNAc
In short: as §1

[29] = target: Neu5Ac9Ac(a2-3)Gal(b1-3)GlcNAc
In short: as §1

[30] = target: Neu5Ac9Ac(a2-3)Gal(b1-4)GlcNAc
In short: as §1

[31] = target: Neu5Ac9Ac(a2-6)Gal(b1-4)GlcNAc
In short: as §1

[32] = target: Neu5Gc(a2-3)Gal(b1-3)GlcNAc
In short: as §1

[33] = target: Neu5Gc(a2-3)Gal(b1-3)[Fuc(a1-4)]GlcNAc
In short: as §1

Neu5Gc(a2-3)Gal(b1-4)Glc = target: Neu5Gc(a2-3)Gal(b1-4)Glc
In short: as §1

[34] = target: Neu5Gc(a2-3)Gal(b1-4)GlcNAc
In short: as §1

[35] = target: Neu5Gc(a2-3)Gal(b1-4)GlcNAc(b1-3)Gal(b1-4)GlcNAc(b1-2)Man(a1-3)[Neu5Gc(a2-3)Gal(b1-4)GlcNAc(b1-3)Gal(b1-4)GlcNAc(b1-2)Man(a1-6)]Man(b1-4)GlcNAc(b1-4)GlcNAc
In short: as §1

[36] = target: Neu5Gc(a2-3)Gal(b1-4)[Fuc(a1-3)]GlcNAc
In short: as §1

[37] = target: Neu5Gc(a2-6)Gal(b1-4)GlcNAc
In short: as §1

Neu5Gc(a2-6)GalNAc = target: Neu5Gc(a2-6)GalNAc
In short: as §1

[38] = target: Neu5Gc(a2-8)Neu5Ac(a2-3)Gal(b1-4)GlcNAc
In short: as §1

[39] = target: Neu5Gc(a2-8)Neu5Gc(a2-3)Gal(b1-4)GlcNAc
In short: as §1

[40] = target: Neu5Gc(a2-8)Neu5Gc(a2-3)Gal(b1-4)GlcNAc(b1-3)Gal(b1-4)GlcNAc
In short: as §1

B1: InvD YPIII (Yersinia pseudotuberculosis), B1JSC0 (protein)
chain: MIKYFSFFKKPEPIVGILPNRQSHHILPTHIRRVAWGTLLLQLFIPLSVSFSPAIAAMKASKADTMVSYSSTEPYVLGSGETVAMVAKKYGITVDELKKINIYRTFSRPFTALTTGDEIDIPRKASPFSVDNNKDNRLSVENTLAGHAVAGATALSNGDVAKSGERMVRSAASNEFNNSAQQWLSQFGTARVQLNINDDFHLDGSAADVLIPLYDNEKSILFTQLGARNKDSRNTVNMGAGVRTFQGNWMYGANTFFDNDLTGKNRRIGVGAEAWTDYLKLSANNYFGITDWHQSRDFIDYNERPANGYDLRAEAYLPSYPQLGGKAMYEKYRGDDVALFGKDNRQKNPHAITAGVNYTPIPLVTIGAEHRAGKGGQNDSNINFQLNYRLGETWQSHIDPSAVAASRTLAGSRYDLVERNNHIVLDYQKQNLVRLSLPDSLAGDPFSQLSVTAQVTATHGLERIDWQSAELMAAGGVLKQTSKNGLEITLPEYQMNRTGGNSYILNAIAYDTQGNASSQASMLITVNAQKINIANSTLVAVPINIEANNSDTSVVTLTLKDDNNIPVTGQDVTFLSPLGTLSAMTDSGNGVYTATLTAGTVSGTTAVSSNINGSALDMTPATVTLNGNSGELSITHSMLVAAPVNIEANGSDTSVVTLTLRDSNNNPVTGQTVTFAGTLGTLGAVTEGSSGVYTATLTAGIMVGTSSITASVNSTALGVTPATVTLNGDSGNLSTTNSTLVAAPVNIEANSSDTSVVTLTLRDNNNNPVTGQTVVFTSTLGTLGNVTEQASGVYTATLTAGTVSGVASLSVSVGGNALGVTPATVTLNGDSGNLSTTNSTLVAAPVNIEANSSDTSVVTLTLRDNNNNPVTGQTVNFAGTLGTLGTVSEGSSGVYTTTLTAGTVAGVASLSVNVGGNALGVTPATVTLNGNSGNLSATNSTLVAAPVNIEANSSDTSVVTLTLRDNNNNPVTGQTVAFTSTLGTLGNVTEQASGVYTATLTAGTVSGVASLSVSVNSNALGVTPATVTLNGDSGNLSTTNSTLVAAPVNIEANSSDTSVVTLTLRDNNNNPVTGQTVAFTSTLGTLGNVTEQASGLYTATLTAGTVSGVASLSVNVGGNALGVTPATVTLNGDSGNLSATNSTLVAAPVNIEANSSDTSVVTLTLRDNNNNPVTGQTVAFTSTLGTLGNVTEQASGLYTATLTAGTVSGVASLSVNVGGTALGVTPATVTLNGDSGNLSTTNSTLVAAPVNIEANSSDTSVVTLTLRDNNNNPVTGQTVAFTSTLGTLGNVTEQASGLYTATLTAGTVSGVASLSVSVNSTALGVTPATVTLNGDSGNLSTTNSTLVAAPVNIEANSSDTSVVTLTLRDNNNNPVTGQTVAFTSTLGTLGNVTEQASGVYTATLTAGTVAGVASLSVNVGGNALGVTPATVTLNGDSGNLSTTNSTLVAAPVNIEANSSDTSVVTLTLRDNNNNPVTGQTVAFTSTLGTLGNVTEQASGVYTATLTAGTVSGVASLSVSVGSSALGVTPATVTLNGDSGNLSTTNSTLVAAPVNIEANNSDTSVVTLTLRDNNNNPVTGQTVAFTSTLGTLGNVTEQASGVYTATLTAGTVSGVASLSVSVNSNALGVTPATVTLNGDSGNLSTTNSTLVAAPVNIEANSSDTSVVTLTLRDNNNNPVTGQTVVFTSTLGTLGNVTEQASGLYTATLTAGTVSGVASLSVSVGGNALGVTGNITLAPGALDAARSILAVNKPSINADDRIGSTITFTAQDAQGNAITGLDIAFMTDLENSQIMTLVDHNDGTYTANINGTQTGIANIAVQSSGATIAGLAATMVTITPGAWNTTQATPVMTVALPITTCQSSSGVYKRYYIGIVTHELYDNYGNEISGILTYNLGAGRYTTVTSQNSSVSGSNGLTRRSNSPVSHFILTSDAYTSQAACYAERIANVNVTITVTAITDDFKTSAVNKVFILGTGSN
glycan array binding signal (z-score) [1]: 0.573
glycan array binding signal (z-score) [2]: -0.132
glycan array binding signal (z-score) [3]: 0.37
glycan array binding signal (z-score) [4]: -0.125
glycan array binding signal (z-score) [5]: -0.174
glycan array binding signal (z-score) [6]: -0.132
glycan array binding signal (z-score) [7]: -0.311
glycan array binding signal (z-score) [8]: 0.072
glycan array binding signal (z-score) [9]: -0.252
glycan array binding signal (z-score) [10]: 0.289
glycan array binding signal (z-score) [11]: -0.259
glycan array binding signal (z-score) (Neu5Ac(a2-6)GalNAc): -0.203
glycan array binding signal (z-score) [12]: -0.312
glycan array binding signal (z-score) [13]: -0.154
glycan array binding signal (z-score) [14]: -0.286
glycan array binding signal (z-score) [15]: -0.339
glycan array binding signal (z-score) (Neu5Ac(a2-8)Neu5Ac): -0.096
glycan array binding signal (z-score) [16]: -0.023
glycan array binding signal (z-score) [17]: -0.022
glycan array binding signal (z-score) [18]: -0.211
glycan array binding signal (z-score) [19]: -0.179
glycan array binding signal (z-score) [20]: -0.061
glycan array binding signal (z-score) [21]: -0.107
glycan array binding signal (z-score) [22]: -0.347
glycan array binding signal (z-score) [23]: -0.093
glycan array binding signal (z-score) [24]: -0.05
glycan array binding signal (z-score) [25]: -0.233
glycan array binding signal (z-score) [26]: -0.363
glycan array binding signal (z-score) [27]: -0.23
glycan array binding signal (z-score) [28]: -0.095
glycan array binding signal (z-score) (Neu5Ac(b2-6)GalNAc): 0.163
glycan array binding signal (z-score) [29]: 0.008
glycan array binding signal (z-score) [30]: -0.152
glycan array binding signal (z-score) [31]: -0.3
glycan array binding signal (z-score) [32]: -0.296
glycan array binding signal (z-score) [33]: -0.472
glycan array binding signal (z-score) (Neu5Gc(a2-3)Gal(b1-4)Glc): -0.223
glycan array binding signal (z-score) [34]: -0.352
glycan array binding signal (z-score) [35]: 0.122
glycan array binding signal (z-score) [36]: -0.293
glycan array binding signal (z-score) [37]: -0.106
glycan array binding signal (z-score) (Neu5Gc(a2-6)GalNAc): -0.093
glycan array binding signal (z-score) [38]: -0.373
glycan array binding signal (z-score) [39]: -0.373
glycan array binding signal (z-score) [40]: 0.086
